# Laboratory results: PubChem BioAssay AID588855 (National Center for Advancing Translational Sciences (NCATS), 2011)
# Screen size: about 410,000 compounds; about 5,000 (1.2%) were called active. Inconclusive results, whose numbers are uncertain, are shown with a selection of clear calls. Calls come from the whole dose curve; as a rule, active = well fitted inhibition curve with a large enough effect; inconclusive = small, poorly fitted or top-dose-only effect; inactive = no such curve, though single readings can be large or run the other way. Where the call is inconclusive, the potency comes from a doubtful curve fit.
# Experiment: qHTS for Inhibitors of TGF-b; note: nearly all actives have a fitted effect of over 65% in size
# Conditions: HepG2 CAGA-GFP TGF-b/SMAD3 reporter, GFP fluorescence, 18 h, TGF-beta stimulated, 500 pg/mL final; series mostly up to 46.1 µM
# How it was run: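 HEPG2 CAGA-GFP cells (1000/well, DMEM with 1% FBS) were pre-incubated 2 h at 37 degrees C, given compound by pin tool, then stimulated with TGF-beta at 500 pg/mL final for 18 h before per-cell GFP fluorescence imaging.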
# Potency is the fitted concentration of half-maximal effect; tags give direction and shape of the fitted curve.
row,Compound,Potency
1,CCOc1ccc(/C=C/[N+](=O)[O-])c2ccccc12,active: 5.01 µM
2,Cc1ccc(CSc2nc3ccccc3c(=O)n2Cc2ccco2)cc1,"inconclusive: 6.31 µM [inhibitor, single point]"
3,CCN(Cc1ccccc1)C(=O)C1CCN(Cc2ccc(OC)c(OC)c2OC)CC1,inactive
4,COc1ccc(Nc2oc(-c3ccc(COc4ccccc4C)o3)nc2C#N)cc1,inactive
5,Cc1cccc2cc(CN(Cc3ccco3)C(=O)Nc3cccc(C#N)c3)c(Cl)nc12,"inconclusive: 1.78 µM [inhibitor, full curve, poor fit]"
6,CC1CN(CCCCOc2ccc(Cl)c3ccccc23)CC(C)O1 (stereo not given),active: 15.8 µM
7,CCOc1ccc(N(C)S(=O)(=O)c2ccc3[nH]cc(C(=O)NCc4ccccc4)c(=O)c3c2)cc1,"inconclusive: 0.562 µM [inhibitor, partial curve, poor fit]"
8,Nc1c(C(=O)Nc2cccc(Cl)c2Cl)sc2nc(-c3cccnc3)ccc12,inactive
9,COc1ccc(C2=CC(=O)C[C@H](c3ccc(Cl)cc3)C2)cc1,"inconclusive: 35.5 µM [inhibitor, single point]"
10,Cc1cccc(CCN(CC(=O)NC2CCCCC2)C(=O)c2csnn2)c1,inactive
11,CCOc1ccc2nc(CN3CCN(Cc4ccsc4)C(CCO)C3)ccc2c1 (stereo not given),"inconclusive: 20 µM [inhibitor, single point]"
12,Cc1ccc(OCc2nc(-c3ccc(C(=O)NCc4ccc(OC(C)C)cc4)cc3)oc2C)cc1,inactive
13,CCOc1ccc(Cn2c3ccc(OC)cc3c3nc4ccccc4nc32)cc1OC,inactive
14,CC1CC2(CCCC2)N(C(=O)c2ccccc2)Cc2ccccc21 (stereo not given),"inconclusive: 35.5 µM [inhibitor, single point]"
15,Cc1cc2cc(C#N)c(NCCNC(=S)NCCCN3CCOCC3)nc2cc1C,"inconclusive: 1.26 µM [inhibitor, single point]"
16,CC(C)C(=O)N1CCC2(CC1)Oc1ccc(Cl)cc1C(=O)C21CC(c2ccccc2)=NO1 (stereo not given),"inconclusive: 5.62 µM [inhibitor, single point]"
17,Cc1cc(O)ccc1-c1cc(C(=O)NCc2cc(C(F)(F)F)cc(C(F)(F)F)c2)[nH]n1,"inconclusive: 20 µM [inhibitor, single point]"
18,COc1ccc(C(CNC(=O)c2cc3c(s2)CCC(C)C3)N2CCOCC2)cc1 (stereo not given),inactive
19,O=C(Nc1nc2ccccc2s1)c1cnccn1,inactive
20,CC(C)=C1C2C=CC1C1C(=O)N(c3ccc4c(c3)OCO4)C(=O)C21 (stereo not given),inactive
21,CCOc1ccc(Nc2nc3c(S(=O)(=O)c4ccc(C(C)C)cc4)nnn3c3ccsc23)cc1,"inconclusive: 6.31 µM [inhibitor, single point]"
22,COC(C#CCCN(C)C)(c1ccccc1)c1ccccc1,inactive
23,O=C(O)c1cccc(N/N=C/C2=C(Cl)c3cc(Cl)ccc3SC2)c1,"inconclusive: 35.5 µM [inhibitor, single point]"

row,Compound,Potency
1,COc1ccc(C(=O)/C=C/c2ccc(OC)cc2OC)c(O)c1,inactive
2,O=C(NCc1ccco1)c1ccc2c(c1)N(Cc1ccc(Cl)cc1)C(=O)c1ccccc1S2,"inconclusive: 11.2 µM [inhibitor, partial curve, poor fit]"
3,Nc1cccc2c1C(=O)N(C(=O)c1ccco1)C2=O,inactive
4,COc1cccc(NC(=O)/C(C#N)=C/c2c(C)n(Cc3ccc(Cl)cc3)c3ccccc23)c1,"inconclusive: 22.4 µM [inhibitor, single point]"
5,CC(C)Cn1c(-c2ccc(S(=O)(=O)N3CCOCC3)cc2)csc1=Nc1cc(Cl)ccc1Cl,"inconclusive: 0.0891 µM [inhibitor, full curve, poor fit]"
6,CCOC(=O)c1cnc(SCc2nc(N)nc(Nc3ccc(F)cc3)n2)nc1N,inactive
7,CC(C)(C)CC(=O)NC(=S)NCCc1ccccc1,inactive
8,O=c1[nH]c(=O)c2cc3ccccc3nc2[nH]1,"inconclusive: 12.6 µM [inhibitor, partial curve]"
9,C[C@@H](O)C1NC(=O)[C@H](CCCCN)NC(=O)c2cc([N+](=O)[O-])cc(I)c2OCC[C@@H](C(N)=O)NC1=O (stereo not given in full),"inconclusive: 35.5 µM [inhibitor, single point]"
10,O=C(c1ccc([N+](=O)[O-])cc1)N1CCc2ccccc2C1,inactive
11,Cc1cc(C)c2cc(CN(Cc3nnnn3C3CCCCC3)CC3CCCO3)c(=O)[nH]c2c1 (stereo not given),"inconclusive: 35.5 µM [inhibitor, single point]"
12,Cc1sc2ncnc(SCC(=O)NNC(=O)COc3cccc4ccccc34)c2c1C,"inconclusive: 35.5 µM [inhibitor, single point]"
13,C[C@H](CO)N1C[C@H](C)[C@H](CN(C)C(=O)Nc2ccc(C(F)(F)F)cc2)OCc2cnnn2CCCC1=O,inactive
14,COc1ccccc1Cc1nc2ccccc2nc1SCC(=O)N1CCN(c2ccccc2)CC1,inactive
15,Cc1ccc(C(C)C)c(OCCSc2nc3ccccc3n2CC(O)CO)c1 (stereo not given),"inconclusive: 35.5 µM [inhibitor, single point]"
16,Cc1cc(C)cc(Oc2nc3c(C)cccn3c(=O)c2/C=C(\C#N)c2nc3ccccc3s2)c1,"inconclusive: 20 µM [inhibitor, single point]"
17,CN(C)CCCN(C(=O)c1ccc(S(=O)(=O)N2CCCCCC2)cc1)c1nc2ccc(Br)cc2s1,"inconclusive: 22.4 µM [inhibitor, single point]"
18,O=C(O)CCCNC(=O)Nc1ccccc1,"inconclusive: 0.112 µM [inhibitor, full curve, poor fit]"
19,CCc1ccc(C(=O)c2cn(Cc3ccc(F)cc3)c3cc(OC)c(OC)cc3c2=O)cc1,"inconclusive: 35.5 µM [inhibitor, single point]"
20,CCn1c(NC(=O)c2ccccc2)nc2ccccc21,inactive
21,Cc1ccc(C)c(N2CCN(C(=O)CCS(=O)(=O)c3ccc4c(c3)NC(=O)CO4)CC2)c1,"inconclusive: 12.6 µM [inhibitor, single point]"
22,CN(C)CCNc1oc(-c2ccc(COc3ccc(Cl)cc3)o2)nc1C#N,"inconclusive: 17.8 µM [inhibitor, partial curve]"
